From article PMC4336329 (PLoS ONE, 2015)
Hit rate of the full screen: of about 310,000 compounds, about 14,000 (4.5%) showed an effect of 50% or more. Effects have a minus sign here. The list shows a part of the results.

What follows are compounds tested against human ether-à-go-go-related gene (hERG) potassium channel (human, UniProt Q12809) (assay: primary screen, population patch clamp on CHO cells stably expressing hERG).
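Also: peak tail current of the secondary pulse compared with the same well before compound.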

human ether-à-go-go-related gene (hERG) potassium channel, sequence (Q12809 whole entry, looked up): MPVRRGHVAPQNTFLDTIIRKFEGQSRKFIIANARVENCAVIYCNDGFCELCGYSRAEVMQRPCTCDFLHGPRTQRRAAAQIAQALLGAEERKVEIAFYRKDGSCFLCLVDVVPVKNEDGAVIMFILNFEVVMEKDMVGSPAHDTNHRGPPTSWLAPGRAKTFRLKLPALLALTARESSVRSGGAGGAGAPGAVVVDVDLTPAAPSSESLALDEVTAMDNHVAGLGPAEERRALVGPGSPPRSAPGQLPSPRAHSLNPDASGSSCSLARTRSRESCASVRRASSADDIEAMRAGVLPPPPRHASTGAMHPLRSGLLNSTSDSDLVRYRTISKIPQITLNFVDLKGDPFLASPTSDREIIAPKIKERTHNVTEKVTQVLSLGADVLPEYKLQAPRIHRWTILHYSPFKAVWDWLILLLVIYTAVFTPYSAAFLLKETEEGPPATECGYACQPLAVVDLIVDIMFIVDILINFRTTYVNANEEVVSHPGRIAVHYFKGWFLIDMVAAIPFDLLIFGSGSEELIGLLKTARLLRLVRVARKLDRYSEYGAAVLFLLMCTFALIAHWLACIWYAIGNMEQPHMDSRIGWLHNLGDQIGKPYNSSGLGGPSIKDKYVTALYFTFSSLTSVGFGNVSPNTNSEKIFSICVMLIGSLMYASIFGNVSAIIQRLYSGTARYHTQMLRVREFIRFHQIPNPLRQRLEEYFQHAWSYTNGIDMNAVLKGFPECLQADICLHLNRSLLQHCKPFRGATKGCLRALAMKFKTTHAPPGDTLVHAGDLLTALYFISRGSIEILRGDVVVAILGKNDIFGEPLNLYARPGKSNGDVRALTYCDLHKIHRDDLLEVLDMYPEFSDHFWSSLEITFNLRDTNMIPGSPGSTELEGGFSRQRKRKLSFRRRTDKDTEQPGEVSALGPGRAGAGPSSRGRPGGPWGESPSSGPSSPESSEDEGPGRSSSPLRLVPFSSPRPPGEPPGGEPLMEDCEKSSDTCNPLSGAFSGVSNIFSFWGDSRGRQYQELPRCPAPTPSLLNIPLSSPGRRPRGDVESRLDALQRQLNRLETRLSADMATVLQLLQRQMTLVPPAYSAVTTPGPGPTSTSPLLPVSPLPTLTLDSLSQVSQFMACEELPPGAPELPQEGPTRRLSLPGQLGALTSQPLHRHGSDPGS

Structure (SMILES) | hERG current change (%, negative = inhibition) at 10uM
COc1ccc(C2C(C(C)=O)=C(O)C(=O)N2c2ccc(Br)cn2)cc1 (centres unmarked) | -18.4%
CCCCNC(=O)/C(=C/c1ccco1)NC(=O)c1ccco1 | 11.9%
CCOc1ccc(-n2c(C)c(C(=O)OC)c3cc(O)ccc32)cc1 | 1.58%
COC(=O)c1cc(N=Nc2c(C)[nH]c3ccccc23)cc(C(=O)OC)c1 | 17.4%
CCOc1ccccc1CN1CCNC(=O)C1CC(=O)NCc1cc(C)n(C)n1 (centres unmarked) | 18.8%
CCCCNC(=O)CCC(=O)Nc1ccc2nc(N3CCOCC3)cc(C)c2c1 | -3.09%
O=C1c2ccccc2C(=O)C1c1nccc2ccccc12 | 19.2%
CCOc1ccc(S(=O)(=O)N2CCCC(C(=O)NCc3ccco3)C2)cc1 (centres unmarked) | -4.45%
COc1ccc(/C(O)=C2/C(=O)C(=O)N(CCCN3CCOCC3)C2c2ccc(N(C)C)cc2)cc1 (centres unmarked) | 9.34%
COc1nc(C)nc(NC(=O)NS(=O)(=O)c2ccccc2Cl)n1 | 9.96%
Cc1ccc(-c2nc3ccccc3o2)cc1NC(=S)NC(=O)c1cc2ccccc2o1 | 4.08%
CSc1ccccc1NC(=O)COC(=O)Cn1cc(C(F)(F)F)ccc1=O | 4.23%
CN(C)S(=O)(=O)c1cccc(NC(=S)N(CCC#N)Cc2cccnc2)c1 | -7.37%
O=C(/C=C/c1ccco1)N(Cc1cccc(Br)c1)C1CCS(=O)(=O)C1 (centres unmarked) | -46.3%
CC(c1ccccc1)N1C(=O)c2cccnc2C1=O (centres unmarked) | 15.6%
COCC(=O)Nc1nnc(-c2ccc(C(C)(C)C)cc2)s1 | -19.2%
CCCCN1CC(O)=C(c2nc(-c3ccc(Br)cc3)cs2)C1=N | 4.74%
Cc1cccc(C(=O)NC(C(=O)Nc2nc(-c3ccccn3)cs2)C(C)C)c1 (centres unmarked) | 23.5%
CCOC(=O)c1nn(-c2cccc(OC)c2)c2nc(Nc3ccccc3)cc(=O)n12 | -5.64%
CN1C(C(=O)NCc2ccccc2)CC2Cn3c(nc4ccccc43)C21 (centres unmarked) | -0.69%
O=C(NS(=O)(=O)Nc1ccc(Cl)cc1)c1c[nH]c2ccccc12 | 23.2%
C=CCc1c(C)nc(SC)nc1Nc1ccc(C)cc1 | -14.3%

Structure (SMILES) | hERG current change (%, negative = inhibition) at 10uM
CCOC(=O)c1c(SCC(=O)Nc2nc(C)cs2)nc(=O)[nH]c1C | 13.3%
O=C(CN1CCN(C/C=C/c2ccccc2)CC1)Nc1ccccc1C(=O)NC1CC1 | -80.5%
COc1cccc(NC(=O)NCc2c(-c3ccccc3)noc2C)c1 | -15.7%
O=C(Nc1nccs1)c1cccc(N2C(=O)C3C4C=CC(C4)C3C2=O)c1 (centres unmarked) | -28.9%
CN(CCOc1cccc(C(F)(F)F)c1)Cc1ccccc1.O=C(O)C(=O)O | -5.64%
CSc1ccccc1C(=O)Nc1ccc2c(c1)OCCO2 | 2.01%
COc1ccc(-c2cccc(NS(=O)(=O)c3cc([N+](=O)[O-])c(C)c([N+](=O)[O-])c3)c2)nn1 | -29.6%
COc1cc(CC(=O)Nc2ncc(C)s2)cc(OC)c1OC | 19.2%
CCOC(=O)c1cc2c(ccn2C)n1CC(=O)N1CCN(c2ccccc2)CC1 | -5.78%
COc1cc(C2NC(=O)NC(c3ccccc3)=C2C(C)=O)cc([N+](=O)[O-])c1O (centres unmarked) | 8.89%
COc1ccc(CCNC(=O)C2CCC(=O)N(CCc3ccc(OC)cc3)C2)cc1 (centres unmarked) | -18.3%
O=C(O)c1ccc2c(=O)n3c(nc2c1)/C(=C/c1ccc(Cl)c([N+](=O)[O-])c1)CC3 | 21.3%
O=[N+]([O-])c1cc(C(F)(F)F)ccc1NC1CCN(Cc2ccccc2)C1 (centres unmarked) | -66.6%
CCCOC(=O)CN1C(=O)c2ccccc2C1=O | 10.4%
O=C(NNC(=O)C1CCCN(S(=O)(=O)c2cccc(F)c2)C1)C1CC1 (centres unmarked) | 49.8%
Cc1c(Br)c([N+](=O)[O-])nn1C(C)C(=O)NCC1CCCO1 (centres unmarked) | 1.09%
COc1ccc(OC)c(C2NC(=O)NC(C)=C2C(=O)Nc2ccc(C)cc2)c1 (centres unmarked) | 5.98%
CCOc1ccc(C(CCc2ccccc2)NC(=O)c2ccccc2)cc1OCC (centres unmarked) | -19.1%
COc1ccc(CNS(=O)(=O)NCc2ccccc2F)cc1 | 4.01%
CC(C)CN(CC(C)C)C(=O)COc1ccccc1C(N)=O | 7.55%
COc1cc(/C=N/n2c(C)nc3ccccc3c2=O)cc(OC)c1O | 11%
C=CCC(Nc1ccccc1)c1ccc(OC)c(OC)c1 (centres unmarked) | 0.147%

Structure (SMILES) | hERG current change (%, negative = inhibition) at 10uM
C=CCSc1ncccc1C(=O)NCCc1ccc(Cl)cc1 | 6.54%
COc1ccc(N2C(=O)/C(=C/c3ccco3)C(=O)NC2=S)cc1 | 24.1%
COc1cccc(N2C(=NC(=O)CCC3CCCC3)SC3CS(=O)(=O)CC32)c1 (centres unmarked) | 7.31%
Cc1cc(C)c(C#N)c(SCCN2CCCCC2)n1 | -24.6%
O=S(=O)(c1ccc(NCc2ccccc2)cc1)N1CCOCC1 | 15.2%
CC1CCCC(NC(=O)COC(=O)[C@@H]2CC(O)CN2S(=O)(=O)c2ccc3c(c2)OCCO3)C1C (some centres unmarked) | 7.25%
CC(C)CC(=O)Nc1c(C(=O)N2CCN(Cc3ccccc3)CC2)oc2ccccc12 | -20.9%
NNC(=O)CNC(c1ccccc1)c1cc(Cl)ccc1NC(=O)c1ccccc1 (centres unmarked) | 3.51%
COc1cc2sc(C)nc2cc1C | 36.8%
CCC(C)N(C(=O)c1csnn1)C(C(=O)NC1CCCC1)c1ccccc1F (centres unmarked) | -14.8%
O=C1/C(=C/c2cccc3ccccc23)CCCc2ccccc21 | 9.31%
CN(C)C(=O)CSc1nc(-c2cccs2)c(-c2cccs2)[nH]1 | -3.1%
COc1ccc(S(=O)(=O)N2CCOCC2)cc1NC(=O)CSc1ncnc2ccccc12 | -50.4%
O=C(CNS(=O)(=O)c1ccc(Br)s1)NCCc1ccc(Cl)cc1 | 23.6%
O=C(COC(=O)c1ccc2ncsc2c1)NCc1ccc(F)cc1 | -7.29%
CCS(=O)(=O)N1CCN(S(=O)(=O)c2ccc(S(=O)(=O)NC3CC3)cc2)CC1 | -2.2%
COc1ccc(S(=O)(=O)N2CCCCC2)cc1NC(=O)C1CC(=O)N(Cc2ccccc2)C1 (centres unmarked) | -44.3%
CCN1CCCC1Cn1cnc2c([nH]c3ccc(Cl)cc32)c1=O (centres unmarked) | -76.5%
Cc1ccc(S(=O)(=O)N2CCC(=O)N(CCOC(=O)Nc3ccc(C)c(C)c3)CC2)cc1 | -48.9%
COc1ccc(C(C)C)cc1S(=O)(=O)NCCCn1ccnc1 | -9.79%
C=CCn1c(SCCOc2ccccc2)nnc1C(C)NC(=O)c1ccccc1 (centres unmarked) | 1.61%
CN1C(C(=O)NCc2cccc(Br)c2)CC2Cn3c(nc4ccccc43)C21 (centres unmarked) | -67.7%

Structure (SMILES) | hERG current change (%, negative = inhibition) at 10uM
CC(C)C(NC(=O)c1ccco1)C(=O)OCC(=O)Nc1ccc(C(N)=O)cc1 (centres unmarked) | 6.33%
CCOc1nc(Nc2ccc(F)cc2)nc(N2CCN(c3ccc(OC)cc3)CC2)n1 | -14.7%
O=C1C2C3c4ccccc4C(c4ccccc43)[C@@H]2C(=O)N1c1ccccn1 (some centres unmarked) | 5.6%
COc1ccc(CCNS(=O)(=O)c2cccc3nsnc23)cc1OC | -12.3%
CC(C)(C)c1ccc(-c2nc3cc(N)ccc3o2)cc1 | 20.9%
Cc1cc(C)n(-c2nc(SCC(=O)N3CCCC3)c3c4c(sc3n2)CCCC4)n1 | -9.29%
COc1ccc(-n2cc3ccc([N+](=O)[O-])cc3n2)cc1 | 7.2%
Cc1nnc(SCC(=O)Nc2ccccc2NC(=O)CSc2nnc(C)s2)s1 | 15.2%
COc1ccccc1N(C)S(=O)(=O)c1ccc(C(=O)Nc2nccs2)cc1 | -30.5%
CC(C)C(C(=O)OCC(=O)c1cccc([N+](=O)[O-])c1)N1C(=O)[C@@H]2[C@H]3CC[C@H](C3)[C@@H]2C1=O (some centres unmarked) | -14.5%
COc1cccc(CN(C)C(=O)c2cc(-c3cccs3)nc3ccccc23)c1 | -2.81%
O=C(O)c1cc(O)c2c(c1)C(=O)c1cccc(O)c1C2=O | 14.6%
O=C(O)c1cccc(NC(=O)c2ccc(S(=O)(=O)c3ccccc3)cc2)c1 | 0.846%
Cc1ccc(Nc2nc(N)c3ccccc3n2)cc1Cl.Cl | 9.26%
CC(C)C(=O)Nc1nnc(CCc2nnc(NC(=O)C(C)C)s2)s1 | 8.56%
Cc1ccc(S(=O)(=O)NNC(=O)C2Cc3c(ccc4ccccc34)O2)cc1 (centres unmarked) | 10.1%
CCOC(=O)c1ccccc1OCc1cc(/C=N/n2cnnc2)ccc1OC | -13.9%
Cc1c(Cc2ccc3c(c2)OCO3)sc(NC(=O)C(C)(C)C)c1C#N | 1.1%
Cc1ccc(N2C(=O)[C@@H]3C(c4cccnc4)=NO[C@@H]3C2=O)cc1 | 8.88%
Brc1ccc2ncnc(Nc3ccc(N4CCOCC4)cc3)c2c1 | -22.5%
